From article PMC6142691, “Cannabidiol enhances morphine antinociception, diminishes NMDA-mediated seizures and reduces stroke damage via the sigma 1 receptor” (Molecular Brain, 2018) come the findings set out here.

The assay deals with T1, sigma 1 receptor (σ1R), murine full-length (1–223), GST-free (mouse, UniProt O55242 1-223).
T1 construct: sigma 1 receptor, mouse, GenBank AF004927, full-length residues 1-223; amplified by RT-PCR from mouse brain RNA; also called recombinant σ1R; source: E. coli BL21 (KRX), purified (GStrap FF, cleaved on the column with ProTEV protease, ion exchange or electroelution); not shown: GST, N-terminal, cleaved
Put plainly: pull-down; GST-NR1 C-terminal fragment covalently attached to NHS-activated Sepharose 4FF; σ1R 100 nM (excess 1:3) in 200 μL 50 mM Tris-HCl pH 7.5, 0.2% CHAPS, 2.5 mM CaCl2; 20 min at RT, three washes; then 20 min with σ1R ligands (CBD, progesterone, BD1063, PPCC, PRE084, 4-IBP); bound σ1R detected by SDS-PAGE and immunoblot. The settings on record: both partners purified.

B1: GST-tagged NMDAR NR1 subunit C-terminal sequence ([…]; last transmembrane residues plus cytosolic C0-C1-C2) (domain or fragment)
chain: not shown
notes: A TEV protease site lies between GST and the NR1 fragment; also called agarose-NR1; NR1 C1; source: E. coli BL21 (KRX), purified (GStrap FF); not shown: GST, N-terminal, kept
On to B1, for which the binding result is “binds”.
